From the supplement of paper PMC11417369
Some of the results follow.

The sequences below were run on PfAP2-HC AP2 domain (GST-tagged) (assay: gcPBM binding intensity (ln(normalized median fluorescence intensity)); higher = stronger DNA binding).
Outline: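 In this array assay, P. falciparum DNA-binding domains with a GST tag, expressed in E. coli, were applied for 1 h to primer-extended double-stranded 36-bp intergenic genomic probes and negative controls on an Agilent 4 × 180k array. Bound protein was visualised with Alexa488 anti-GST antibody at 488 nm. Binding intensity is the highest Masliner-normalised natural-log median intensity across replicate spots of either probe orientation.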
In the case of “AAATATTATTTATTTACACACCAATCTTCTTTTCTT [CACACA_site3990]”, the “gcPBM binding intensity (ln)” value is reported as 9.89.
For “TTTACAAAAAATTATACACACACGTACATATAAATA [CACACA_site945]”, the “gcPBM binding intensity (ln)” value was 10.1.
“TTTTATTATTAATTTCTTTTTTCTCATCACTTTCAA [XGTACX_negctrl_site117]” was tested, and the “gcPBM binding intensity (ln)” value was 9.49.
With “ATATATATAAAATATACACACATACTGTTCATTTAA [CACACA_site6149]” the “gcPBM binding intensity (ln)” value was 9.83.
“TAATTTATGAGTAATACACACACTTGTGGATATATT [CACACA_site3790]” was tested, and the “gcPBM binding intensity (ln)” value was 9.8.
With “ATATAATGTTGTAATAGTACTTTTTTCATATAAATA [XGTACX_site2666]” the “gcPBM binding intensity (ln)” value was 9.45.
With “AAAGAATACAAAATTGCACACATATTGTGAAAATGT [CACACA_site9327]” the “gcPBM binding intensity (ln)” value was 10.2.
For “TATTAACACAATAGCGCACACTTTTAATATTTTATA [CACACA_site1617]”, the “gcPBM binding intensity (ln)” value was 9.8.
For “CTTAAATTGAAATGTTGTACAAAGTAAAAACAATGA [XGTACX_site2123]”, the “gcPBM binding intensity (ln)” value was 9.79.
With “CATATTTTATTATATACATGCAATTTTAATATATAT [TGCATGCA_site544]” the “gcPBM binding intensity (ln)” value was 9.61.
For “TATAATTTAACGACATGTACATATAAAAAAATATTT [XGTACX_site2395]”, the “gcPBM binding intensity (ln)” value was 9.75.
“ATACACATTCTTCCGACATAATAAGAAAAAGAAAAA [CACACA_negctrl_site9]” was tested, and the “gcPBM binding intensity (ln)” value was 9.47.
With “AAAATGTATTCTCTCATGCACACTTTCTTTAAGGGA [CACACA_site2196]” the “gcPBM binding intensity (ln)” value was 9.55.
With “TTATTTATATTTTTTTGTACACATATTGTATACATA [XGTACX_site1178]” the “gcPBM binding intensity (ln)” value was 9.78.
With “TGTAGATTTTGTAACACACACATATAAATACCTATA [CACACA_site7183]” the “gcPBM binding intensity (ln)” value was 9.94.
“TATAAACCTTTTTGCACGCACACAAAAAAAAAATAA [CACACA_site168]” was tested, and the “gcPBM binding intensity (ln)” value was 9.88.
“AAACATATATACATATGTACATATATACATATATGT [XGTACX_site5779]” was tested, and the “gcPBM binding intensity (ln)” value was 9.66.
In the case of “TTCGGAAAAATTAAAGCACACAAAAAAAAATAAAAA [CACACA_site8296]”, the “gcPBM binding intensity (ln)” value is reported as 9.84.
With “GATTAACAACATATTAGTACATATATTATATATATA [XGTACX_site7646]” the “gcPBM binding intensity (ln)” value was 9.61.
For GACTATAATGTTTTGGTGCGTCATGTTATGGTCATC, the “gcPBM binding intensity (ln)” value was 9.69.
“TATTTATATATATGATGTACATAAGGTGTAATGTTA [XGTACX_site5591]” was tested, and the “gcPBM binding intensity (ln)” value was 9.76.
For “TATTTACATACAAAATGTACAAAAATATATTTTTTT [XGTACX_site888]”, the “gcPBM binding intensity (ln)” value was 9.65.
In the case of “TACATGAATATTTATACATGCACACTAAAATAAAGA [TGCATGCA_site611]”, the “gcPBM binding intensity (ln)” value is reported as 9.75.
For “ATATATATTTAATGTTGTACATAAAAAATATATAAA [XGTACX_site7774]”, the “gcPBM binding intensity (ln)” value was 9.59.
For “ATCTCTTATATATTCACACACATATATATAATTATA [CACACA_site1502]”, the “gcPBM binding intensity (ln)” value was 10.
In the case of “AAATATAATAACGAACGTACTTATTATAATTTGTAA [XGTACX_site2342]”, the “gcPBM binding intensity (ln)” value is reported as 9.53.
For “AGAAAAAAAAAAAGTACACACATATAACATATAGAT [CACACA_site7410]”, the “gcPBM binding intensity (ln)” value was 10.4.
In the case of “ATTTATTTTCTGTGTACACATATGTTGGGTATTTTA [CACACA_site5902]”, the “gcPBM binding intensity (ln)” value is reported as 9.89.
In the case of “GTATATATCCCAAAATGTACATAATTTATTATTTAT [XGTACX_site2842]”, the “gcPBM binding intensity (ln)” value is reported as 9.7.
For “ATAGGTAAAAAGTATACACACGTTGACACATTCTTT [CACACA_site4794]”, the “gcPBM binding intensity (ln)” value was 9.81.
“AAATAATACAAGGGCTGTACATAAAAAGGAGTATAT [XGTACX_site839]” was tested, and the “gcPBM binding intensity (ln)” value was 10.
For ATTTTAAAAAGGATAGTGCAAATGTTAAAATAGGAC, the “gcPBM binding intensity (ln)” value was 10.3.
In the case of “GAAAATTTAAAAAGAGTGCATTATATGTTTGAATAT [GTGCAC_site9564]”, the “gcPBM binding intensity (ln)” value is reported as 9.59.
“CTTTTTTTCTTTCCAAGTACTAAATTCATACAAATT [XGTACX_site2605]” was tested, and the “gcPBM binding intensity (ln)” value was 9.59.
“AATAAAATAATAAAAGCACACAAGAATACACCCAAA [CACACA_site7919]” was tested, and the “gcPBM binding intensity (ln)” value was 10.6.
With “TTTAACGAATAAAAATGTACAAATTTATACATTTAT [XGTACX_site2805]” the “gcPBM binding intensity (ln)” value was 9.44.
In the case of “CAAAAGGATGTGGGATGTACATATGAAAAAAAAAAA [XGTACX_site8059]”, the “gcPBM binding intensity (ln)” value is reported as 9.58.
“TTTTATTTATAATACTCACACATTTATATTACATAT [CACACA_site6000]” was tested, and the “gcPBM binding intensity (ln)” value was 9.99.
In the case of “GGTCTTTTTTTCAAAAGTACATAAATAAAAAAGGTT [XGTACX_site2894]”, the “gcPBM binding intensity (ln)” value is reported as 9.38.
In the case of “TTGTATGTAAAAAAGTGTACATGAGTGATTATATAA [XGTACX_site8166]”, the “gcPBM binding intensity (ln)” value is reported as 9.72.
With “TAAATTTAAAAATCTGCACACATTTAAAAAAAAAAA [CACACA_site2515]” the “gcPBM binding intensity (ln)” value was 9.77.
With “ATTACTAAAAAATATAAACACACATATATTTTACAT [CACACA_site8633]” the “gcPBM binding intensity (ln)” value was 9.88.
“AATAAATGGAATGTCACACATATATATATATATATA [CACACA_site4869]” was tested, and the “gcPBM binding intensity (ln)” value was 9.95.
“ATTATTTAAAAAAAATGTACATAATAAATATGAACG [XGTACX_site4010]” was tested, and the “gcPBM binding intensity (ln)” value was 9.58.
With “AGTGTATGTATATAAACACACATACATATTTATAAC [CACACA_site6777]” the “gcPBM binding intensity (ln)” value was 10.1.
